{
  "source": "ChEMBL document CHEMBL4888484",
  "about": "“Replenishing the malaria drug discovery pipeline: Screening and hit evaluation of the MMV Hit Generation Library 1 (HGL1) against asexual blood stage Plasmodium falciparum ,using a nano luciferase reporter read-out” (2022)",
  "note": "Screen size: about 4,800 compounds; about 420 (8.8%) showed an effect of 50% or more. This is one part of the list.",
  "data": [
    {"system": "Plasmodium falciparum", "experiment": "Confirmatory screen in NF54 nanoGlo assay, in single point, at 2uM, 72h", "assay_type": "functional, Erythrocyte", "conditions": "timepoint 72 hour", "units": {"% Inhibition": "%"}, "values": [
      {"smiles": "CCN(CC)CCNCc1sccc1C", "% Inhibition": -11},
      {"smiles": "CCNC(=O)N1CC[C@H](Oc2ccc3ccccc3n2)C1", "% Inhibition": 48},
      {"smiles": "Cc1cc(S(=O)(=O)Nc2cn(C)c(=O)n(C)c2=O)sc1Cl", "% Inhibition": 12},
      {"smiles": "OCCNCc1ccc(Cl)cc1Cl", "% Inhibition": 0},
      {"smiles": "Cc1noc(C)c1C(=O)NC[C@H](O)Cn1ccccc1=O", "% Inhibition": 3},
      {"smiles": "Cc1cc(OC(=O)c2cccnc2)c(C(C)C)cc1NC1=NS(=O)(=O)c2ccccc21", "% Inhibition": -8},
      {"smiles": "COc1ccc(CCNc2oc(-c3cccnc3)nc2C#N)cc1OC", "% Inhibition": 31},
      {"smiles": "CN1C(=O)[C@H](O)N(c2cccc3ccccc23)C1=O", "% Inhibition": 3},
      {"smiles": "COc1cc(NC(=O)Cn2c(=O)n(C)c(=O)c3c2c(-c2ccccc2)cn3C)cc(OC)c1OC", "% Inhibition": -5},
      {"smiles": "CC(=O)N1c2c(C)cccc2[C@@H](C)CC1(C)C", "% Inhibition": 3},
      {"smiles": "O=C(NC1CCCCCC1)c1cn(CC2(O)CCN(Cc3ccccc3)CC2)nn1", "% Inhibition": -4},
      {"smiles": "O=C1CCC2(CCN(S(=O)(=O)c3ccc(F)cc3F)CC2)N1", "% Inhibition": -2},
      {"smiles": "Nc1cc(F)c(Br)cc1Cl", "% Inhibition": -2},
      {"smiles": "Cn1c(N2CCN(C(=O)C[C@@H]3NC(=O)c4ccccc4N=C3O)CC2)nc2ccccc21", "% Inhibition": -11},
      {"smiles": "Cc1ccc(CNC(=O)N2CC[C@H](CC(=O)N(C)Cc3ccccc3)C2)cc1", "% Inhibition": 0},
      {"smiles": "Cc1cccc(NC(=O)c2cc(C)nc3c2c(C)nn3-c2ccc(F)cc2)c1", "% Inhibition": -2},
      {"smiles": "CNC(=NCC(C)(C)c1ccc(OC)cc1)NC", "% Inhibition": 2},
      {"smiles": "CCc1nnc2c(S(=O)(=O)Nc3cc(F)cc(F)c3)cccn12", "% Inhibition": -5},
      {"smiles": "O=C(c1ccc(COc2ccccc2Br)cc1)N1CCN(c2cccc(C(F)(F)F)c2)CC1", "% Inhibition": -10},
      {"smiles": "Cc1noc(C)c1CNC(=O)[C@H]1CCc2nnc(C3CCOCC3)n2CC1", "% Inhibition": -12},
      {"smiles": "CC(C)n1[nH]c(=O)c2c1NC(=O)C[C@H]2C1CCCCC1", "% Inhibition": 7},
      {"smiles": "CC[C@H](O)CCNC(=O)Nc1ncc(CC(C)C)s1", "% Inhibition": -3},
      {"smiles": "Cc1ccc(N2C(=O)c3ccccc3[C@@H]2c2c[nH]c3ccccc23)cc1", "% Inhibition": 43},
      {"smiles": "COC(=O)c1c(NC(C)=O)c2cc(NC3CCOCC3)cnc2n1CCc1ccc(OC)cc1", "% Inhibition": 70},
      {"smiles": "NS(=O)(=O)N1CCN(Cc2ccn(C3CCCC3)n2)CC1", "% Inhibition": -1},
      {"smiles": "Cc1ccnc(-n2nccc2NC(=O)[C@H](C)Oc2ccccc2)c1", "% Inhibition": -1},
      {"smiles": "Cn1ncc(-c2ncc(C(F)(F)F)cc2Cl)c1N", "% Inhibition": 1},
      {"smiles": "Cc1cc2ncn([C@@H](C)c3nc(-c4cnccn4)cs3)c2cc1C", "% Inhibition": 0},
      {"smiles": "COc1ccc(N(C)S(=O)(=O)c2ccc3c(c2)CCN3C(=O)C2CCC2)cc1", "% Inhibition": 1},
      {"smiles": "Cc1cc2nn(CC(=O)Nc3ccc(C)c(C)c3)c(=O)n2c(-c2ccc(C(F)(F)F)cc2)n1", "% Inhibition": -10},
      {"smiles": "CC1NC2(C(=O)N(Cc3ccc(F)cc3)c3ccccc32)C2C(=O)N(c3cccc4ccccc34)C(=O)C12", "note": "(stereo unspecified)", "% Inhibition": 4},
      {"smiles": "O=C(CCC(=O)c1ccc(F)cc1F)NS(=O)(=O)c1cccnc1", "% Inhibition": -4},
      {"smiles": "COc1cccnc1NC(=O)c1cnn(C)c1", "% Inhibition": 1},
      {"smiles": "NC(=O)N1CCC[C@H]1C(=O)NC1CC(=O)N(C2CC2c2ccccc2)C1", "note": "(stereo partly specified)", "% Inhibition": 3},
      {"smiles": "O=C1[C@@H]2CCCN2C(=O)N1Cc1ccnc(OC2CCOCC2)c1", "% Inhibition": -9},
      {"smiles": "O=C(Nc1onc2c1CCC2)c1ccc2ccccc2c1", "% Inhibition": 45},
      {"smiles": "CCOC(=O)c1cn(CC)c2cc(NC3CCCCC3)c(F)cc2c1=O", "% Inhibition": 78},
      {"smiles": "CN(C)c1nc(N)nc(CN2CCOc3ccc(F)cc32)n1", "% Inhibition": -5},
      {"smiles": "C[C@@H](C(=O)Nc1cc(C(F)(F)F)c[nH]c1=O)n1cc(Cl)cn1", "% Inhibition": -9},
      {"smiles": "CC(C)CCn1nnnc1[C@]1(N(C)C)CCCN(C(=O)c2cccn2C)C1", "% Inhibition": 88},
      {"smiles": "Cc1c(CN2CCc3ccccc32)cnn1C", "% Inhibition": -1},
      {"smiles": "O=C(Nc1ccc(Cc2ccc(NC(=O)c3ccc(Br)cc3)c(O)c2)cc1O)c1ccc(Br)cc1", "% Inhibition": 3},
      {"smiles": "CS(=O)(=O)N[C@H]1CCCN(c2ncc(-c3ccccc3)s2)C1", "% Inhibition": -18},
      {"smiles": "Cc1cc(C)cc(-n2c(=O)c3sccc3n(CC(=O)Nc3ccc(N(C)C)cc3)c2=O)c1", "% Inhibition": 16},
      {"smiles": "c1ncc(N2CCN3CCC[C@H]3C2)nc1OCC1CCCC1", "% Inhibition": -7},
      {"smiles": "O=C(NCC1CCCN(C(=O)C2CC3CCC2C3)C1)Nc1cccc(F)c1", "note": "(stereo unspecified)", "% Inhibition": 0},
      {"smiles": "c1nc2nc[nH]c(NC3CCCCC3)c-2n1", "% Inhibition": 10},
      {"smiles": "COc1ccc(OC)c(NC(=O)Cn2cnc3nc(N4CCOCC4)ncc3c2=O)c1", "% Inhibition": 8},
      {"smiles": "N#Cc1cc2cc(Cl)cnc2nc1N1CCCCC1", "% Inhibition": 6},
      {"smiles": "COc1ccc(C(O)CN2CCC(c3ccccc3)C2)cc1F", "note": "(stereo unspecified)", "% Inhibition": 13},
      {"smiles": "CCCCn1nnc(N(C(=O)c2cccc3c(Br)cccc23)C(=O)c2cccc3c(Br)cccc23)n1", "% Inhibition": -1},
      {"smiles": "CCc1ccc(-c2cc3c(=O)n(CC(=O)N4CC(C)CC(C)C4)ncn3n2)cc1", "note": "(stereo unspecified)", "% Inhibition": -1},
      {"smiles": "CC1(C(=O)NC(C#N)c2cccc(Cl)c2)CC2CCC1O2", "note": "(stereo unspecified)", "% Inhibition": 2},
      {"smiles": "Cc1cccc([C@@H](NC(=O)Nc2ncco2)C(F)(F)F)c1", "% Inhibition": -10},
      {"smiles": "Cc1ccc2c(c1)C(NC(c1cccnc1)c1ncc[nH]1)CCC2", "note": "(stereo unspecified)", "% Inhibition": 2},
      {"smiles": "Cc1ccc(OCCCOc2ccc(CO)nc2)cc1C", "% Inhibition": 3},
      {"smiles": "CCN(C(=O)[C@H]1CCOC1)c1ccc(C(F)(F)F)cc1", "% Inhibition": 3},
      {"smiles": "CC1=CC(=[N+](CCO)CCO)C=C/C1=C(\\c1ccc(N(CCO)CCO)cc1C)c1ccccc1Cl", "% Inhibition": 91},
      {"smiles": "O=C(C1CC1c1ccccc1)N1CCC(c2nc3ccccc3o2)CC1", "note": "(stereo unspecified)", "% Inhibition": 4},
      {"smiles": "O=C1C[C@@]2(CCCN(c3nc(C4CC4)ns3)C2)CN1", "% Inhibition": -7},
      {"smiles": "CC1CCN(C(=O)c2c(-c3ccccc3)nc3n2CCS3(=O)=O)CC1", "% Inhibition": -2},
      {"smiles": "COc1cccc(-c2cc(O)cc(CC[C@H]3CCCCN3)c2)n1", "% Inhibition": 73},
      {"smiles": "c1coc(CNc2nc(Nc3cccc4ccccc34)nc3ccccc23)c1", "% Inhibition": 20},
      {"smiles": "O=S(=O)(c1cccc(Cl)c1)N1CCc2nc(N3CCCCC3)nc(Oc3ccccc3)c2C1", "% Inhibition": 73},
      {"smiles": "CCC1(CC)NC(=O)N(CC(=O)Nc2cccc(CC(=O)OC)n2)C1=O", "% Inhibition": -19},
      {"smiles": "Cc1cc(Cl)ccc1OCc1cccc(-c2nc3c4cn[nH]c4ncn3n2)c1", "% Inhibition": -1}
    ]}
  ]
}
